The record followed here is the antibiotic and cytotoxicity screens of Wong et al. (2023).

The subject of one experiment is HSkMC. Briefly: cytotoxicity call (relative viability < 0.9). The conditions noted are these: 10 µM.
The test system of a further experiment is HepG2. Briefly: cytotoxicity call (relative viability < 0.9). The conditions noted are these: 10 µM.
In another experiment the test system is S. aureus RN4220. Briefly: growth inhibition call (relative growth <= 0.2). As to conditions: 50 µM.

This is one part of the list.

On to `C[C@@H]1CCCCO[C@@H](CN(C)Cc2ccc(C(=O)O)cc2)[C@H](C)CN([C@H](C)CO)C(=O)c2cc(NS(=O)(=O)c3ccc(Cl)cc3)ccc2O1`, for which the cytotoxicity call in the experiment on HSkMC and in the experiment on HepG2 was “inactive” throughout. Also, the growth inhibition call in the experiment on S. aureus RN4220 is “inactive”.

Consider `C[C@H](CO)N1C[C@H](C)[C@H](CN(C)C(=O)Cc2ccncc2)Oc2cc(C#CC3CCCC3)ccc2S1(=O)=O`, for which the cytotoxicity call in the experiment on HSkMC and in the experiment on HepG2 was “inactive” throughout. In the experiment on S. aureus RN4220, the growth inhibition call is “inactive”.

On to `CCCCCN1C/C=C\CCC(=O)N(C)[C@H](C)[C@@H](c2ccccc2)OC(=O)[C@@H]2[C@@H]3C=C[C@]4(O3)[C@H](C1=O)N(c1ccccc1Cl)C(=O)[C@@H]24`, for which the cytotoxicity call in the experiment on HSkMC and in the experiment with HepG2 was “inactive” each time. For the same compound, the growth inhibition call in the experiment on S. aureus RN4220 was “inactive”.

`Nc1cc(N2CCCCC2)nc(N)[n+]1[O-]`: the cytotoxicity call with HSkMC and with HepG2 was “inactive” in each case. The growth inhibition call in the experiment on S. aureus RN4220 was “inactive”.

In the case of `COCCCN1C(=O)[C@@]2(Cc3ccccc31)c1ccccc1C(=O)N(Cc1ccccc1C(F)(F)F)[C@H]2c1ccc(CO)cc1`, the cytotoxicity call with HSkMC and in the experiment with HepG2 was “inactive” in each case. In the experiment with S. aureus RN4220, the growth inhibition call was “inactive”.

Regarding `Cc1noc(C)c1NC(=O)N(C)C[C@H]1OCCCC[C@@H](C)Oc2ccc(NC(=O)Cc3ccccc3)cc2C(=O)N([C@@H](C)CO)C[C@H]1C`, the cytotoxicity call with HSkMC and in the experiment on HepG2 was “inactive” in each case. For the same compound, in the experiment with S. aureus RN4220, the growth inhibition call was “inactive”.

Turning to `COCCNC(=O)C[C@@H]1CC[C@@H]2[C@H](COC[C@H](O)CN2C(=O)Nc2ccc3c(c2)OCO3)O1`, the cytotoxicity call in the experiment on HSkMC and in the experiment with HepG2 was “inactive” each time. The growth inhibition call in the experiment with S. aureus RN4220 was “inactive”.

Regarding `C[C@@H]1CCCCO[C@@H](CN(C)CC2CCCCC2)[C@H](C)CN([C@H](C)CO)C(=O)c2cc(NS(=O)(=O)c3cccs3)ccc2O1`, the cytotoxicity call in the experiment with HSkMC and with HepG2 was “inactive” throughout. In addition, in the experiment with S. aureus RN4220, the growth inhibition call is “inactive”.

In the case of `C[C@@H]1CN([C@H](C)CO)C(=O)c2cc(NS(=O)(=O)c3ccc(F)cc3)ccc2O[C@@H](C)CCCCO[C@H]1CN(C)C(=O)C1CCCCC1`, the cytotoxicity call in the experiment with HSkMC and with HepG2 was “inactive” in each case. Besides, in the experiment on S. aureus RN4220, the growth inhibition call was “inactive”.

With `CC[C@H](C)[C@H]1O[C@]2(C=C[C@@H]1C)C[C@@H]1C[C@@H](C/C=C(\C)[C@@H](O[C@H]3C[C@H](OC)[C@@H](O[C@H]4C[C@H](OC)[C@@H](NC(C)=O)[C@H](C)O4)[C@H](C)O3)[C@@H](C)/C=C/C=C3\CO[C@@H]4[C@H](O)C(C)=C[C@@H](C(=O)O1)[C@]34O)O2`, the cytotoxicity call in the experiment with HSkMC and with HepG2 was “active” each time. Further, the growth inhibition call with S. aureus RN4220 is “inactive”.

As to `OC[C@H]1O[C@@H](O[C@@H]2[C@@H](CO)O[C@](O)(CO)[C@H]2O)[C@H](O)[C@@H](O)[C@H]1O`, the cytotoxicity call in the experiment on HSkMC and with HepG2 was “inactive” throughout. For the same compound, the growth inhibition call with S. aureus RN4220 was “inactive”.

As to `C[C@H]1CN([C@@H](C)CO)C(=O)c2cc(NC(=O)CCC(F)(F)F)ccc2O[C@@H]1CN(C)Cc1ccc(-c2ccccc2)cc1`, in the experiment with HSkMC, the cytotoxicity call is “inactive”. Moreover, the cytotoxicity call with HepG2 was “active”. In addition, the growth inhibition call with S. aureus RN4220 was “inactive”.

As to `COc1ccc(S(=O)(=O)Nc2cccc3c2O[C@H](CN(C)Cc2ccc(-c4ccccc4)cc2)[C@@H](C)CN([C@@H](C)CO)C3=O)cc1`, the cytotoxicity call with HSkMC and in the experiment with HepG2 was “inactive” throughout. Moreover, in the experiment on S. aureus RN4220, the growth inhibition call was “inactive”.

`C[C@@H]1CN([C@H](C)CO)C(=O)c2cccc(NC(=O)Nc3ccc4c(c3)OCO4)c2O[C@@H]1CN(C)C(=O)Nc1cccc2ccccc12`: the cytotoxicity call with HSkMC and in the experiment on HepG2 was “inactive” each time. The growth inhibition call in the experiment on S. aureus RN4220 was “inactive”.

As to `C[C@@H]1CCCCO[C@@H](CN(C)C(=O)Cc2ccccc2)[C@@H](C)CN([C@@H](C)CO)C(=O)c2cc(NC(=O)Nc3ccccc3)ccc2O1`, the cytotoxicity call with HSkMC and in the experiment on HepG2 was “inactive” each time. In the experiment with S. aureus RN4220, the growth inhibition call is “inactive”.

Consider `CSc1nc(C)cc(NC(N)=O)n1`, for which the cytotoxicity call in the experiment on HSkMC and with HepG2 was “inactive” in each case. For the same compound, the growth inhibition call with S. aureus RN4220 is “inactive”.

For the compound `C[C@@H]1CN([C@@H](C)CO)C(=O)c2cc(NC(=O)c3ccncc3)ccc2O[C@H]1CN(C)Cc1ccc(-c2ccccc2)cc1`, the cytotoxicity call with HSkMC and with HepG2 was “inactive” each time. In addition, in the experiment on S. aureus RN4220, the growth inhibition call is “inactive”.

Consider `O=c1ccn([C@@H]2O[C@H](CO)[C@@H](O)[C@H]2O)c(=O)[nH]1`, for which the cytotoxicity call in the experiment with HSkMC and in the experiment on HepG2 was “inactive” throughout. In the experiment on S. aureus RN4220, the growth inhibition call was “inactive”.

As to `N#C[C@@H]1N[C@H](CO)[C@H]1c1ccccc1`, the cytotoxicity call in the experiment with HSkMC and in the experiment on HepG2 was “inactive” throughout. In addition, the growth inhibition call in the experiment with S. aureus RN4220 is “inactive”.

Consider `CC(C)NC(=O)N(C)C[C@@H]1Oc2cc(-c3ccccc3F)ccc2S(=O)(=O)N([C@H](C)CO)C[C@H]1C`, for which the cytotoxicity call in the experiment on HSkMC and in the experiment with HepG2 was “inactive” in each case. Further, the growth inhibition call in the experiment with S. aureus RN4220 is “inactive”.

On to `CCS(=O)(=O)Nc1ccc2c(c1)C(=O)N(C)[C@@H]1CC[C@@H](CC(=O)N[C@@H]3CCN(Cc4ccccc4)C3)O[C@@H]1CO2`, for which the cytotoxicity call in the experiment on HSkMC (human skeletal muscle cells) and with HepG2 was “inactive” in each case. Also, the growth inhibition call in the experiment with S. aureus RN4220 is “inactive”.

As to `COc1ccc(-c2cc(=O)c3c(O)cc(O)cc3o2)cc1`, in the experiment with HSkMC, the cytotoxicity call was “inactive”. Moreover, the cytotoxicity call in the experiment on HepG2 was “active”. Besides, the growth inhibition call with S. aureus RN4220 is “inactive”.

Consider `C[C@H]1CN([C@@H](C)CO)C(=O)c2cc(NC(=O)c3ccncc3)ccc2O[C@H]1CN(C)C(=O)Nc1ccc2c(c1)OCO2`, for which the cytotoxicity call with HSkMC and with HepG2 was “inactive” each time. Moreover, the growth inhibition call in the experiment on S. aureus RN4220 was “inactive”.

As for `NCCNC(=O)Cc1ccc(O)cc1`, the cytotoxicity call in the experiment with HSkMC and in the experiment on HepG2 was “inactive” each time. The growth inhibition call in the experiment on S. aureus RN4220 is “inactive”.

As for `C[C@@H]1CCCCO[C@H](CN(C)Cc2ccc(C(F)(F)F)cc2)[C@H](C)CN([C@@H](C)CO)C(=O)c2cc(NS(=O)(=O)c3ccc(Cl)cc3)ccc2O1`, the cytotoxicity call in the experiment with HSkMC and with HepG2 was “active” each time. Moreover, the growth inhibition call in the experiment with S. aureus RN4220 was “inactive”.

For `Clc1ccc(C(Cn2ccnc2)OCc2ccsc2Cl)c(Cl)c1` (stereo unspecified), the cytotoxicity call with HSkMC and with HepG2 was “inactive” throughout. Also, the growth inhibition call with S. aureus RN4220 is “active”.

Regarding `COc1cccc(S(=O)(=O)N[C@H]2C=C[C@H](CC(=O)NC3CCC3)O[C@@H]2CO)c1`, the cytotoxicity call in the experiment with HSkMC and in the experiment on HepG2 was “inactive” each time. For the same compound, the growth inhibition call in the experiment with S. aureus RN4220 is “inactive”.
